Test results: PubChem BioAssay AID504832 (National Center for Advancing Translational Sciences (NCATS), 2011)
Out of some 310,000 compounds screened, about 18,000 (5.8%) were called active. The shares of active, inactive and inconclusive entries below differ from those in the screen. Calls come from the whole dose curve; as a rule, active = well fitted inhibition curve with a large enough effect; inconclusive = small, poorly fitted or top-dose-only effect, or another doubt; inactive = no such curve, though single readings can be large or run the other way. Potencies of inconclusive entries are left out as doubtful fits.

Experiment: Primary qHTS for delayed death inhibitors of the malarial parasite plastid, 48 hour incubation
Details: P. falciparum luciferase growth in erythrocytes; series mostly up to 28.7 µM
Summary of the method: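 First compound was added to culture medium, then infected red cells at 0.1% parasitemia and 2% hematocrit (final). After incubation at 37 C under 5% CO2, luciferase detection reagent was dispensed and light output recorded.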
% is set by controls: 0 for no effect and ±100 for the full control effect; potency is the fitted concentration of half-maximal effect; tags give direction and shape of the fitted curve.

Compound	Potency	activity change, negative = inhibition
Cc1c(C(=S)NC(=O)C2CC2)c(=O)n(-c2ccccc2)n1C	inactive	
COCCn1c(-c2ccc(Br)cc2)nc2oc3cc(OC)ccc3c(=O)c2c1=O	active: 8.28 µM	
O=S1(=O)CCOC[C@H](CC2CCCCC2)N1Cc1cccc(F)c1	inconclusive [inhibitor, single point]	
COCCNC(=O)c1cnn2c(C(F)F)cc(-c3ccccc3)nc12	inactive	
CCOc1ccc(NC(=O)c2ccc3c(SCC(=O)O)c4c(nc3c2)CCCC4)cc1	inactive	
O=C(O)c1ccc(CN2C(=O)CSC2=S)cc1	inconclusive [inhibitor, full curve, poor fit]	
CCOC(=O)C1CCN(S(=O)(=O)c2cc(C(=O)N3CCCCC3)ccc2OC)CC1	inconclusive [inhibitor, single point]	
Cc1ccc2c(c1)N(C(=O)CCC(=O)NCc1cccc(Br)c1)CC(C)O2 (stereo not given)	inconclusive [inhibitor, partial curve, poor fit]	
COc1ccc(CCNC(=O)c2cc3ccccc3oc2=O)cc1	inactive	
COc1ccc2cnnc(SCC(=O)Nc3ccccc3)c2c1OC	inactive	
CCOc1ccc(N(C(=O)c2snc(C(N)=O)c2N)C(CC)C(=O)NC2CCCC2)cc1 (stereo not given)	inconclusive [inhibitor, single point]	
CC(=O)c1ccc(-c2ccc(C(=O)NC3CCCCCC3)o2)cc1	inconclusive [inhibitor, single point]	
CCC1CCCCN1CCCCOc1cccc(Cl)c1 (stereo not given)		inactive: -12.3% [at 0.00184 µM]
COc1ccc(C2CC(c3cccs3)=NN2C(=O)c2ccc(Br)o2)cc1 (stereo not given)	active: 1.65 µM	
COc1cc(/C=C2\SC(=O)N(c3ccc(O)cc3)C2=O)cc(OC)c1OC	inactive	
COCCN(C(=O)COC(=O)c1cc2ccccc2cc1OC)c1c(N)n(Cc2ccccc2)c(=O)[nH]c1=O	inconclusive [inhibitor, single point]	
Cc1ccccc1-c1cc(C(=O)O)nn1CC1CC(c2cccc([N+](=O)[O-])c2)=NO1 (stereo not given)	inactive	
COc1cccc(OC)c1C(=O)NC(=O)Nc1c(F)cc(F)cc1F	inconclusive [inhibitor, single point]	
CN(C)S(=O)(=O)N(CC(=O)N(Cc1ccccc1)Cc1ccccc1)c1ccccc1	inconclusive [inhibitor, partial curve, poor fit]	
C/C(=N\Nc1cc(C)nc(NCc2ccccc2)n1)c1cccc([N+](=O)[O-])c1	inconclusive [inhibitor, full curve]	
